In PMC9310709, “Single Stabilizing Point Mutation Enables High‐Resolution Co‐Crystal Structures of the Adenosine A2A Receptor with Preladenant Conjugates” (Angewandte Chemie (International Ed. in English), 2022) one finds Ki and Kd data, which are given here for 2 compounds.

The target in one experiment is T1, A2A-ΔC (Homo sapiens, UniProt P29274).
T1 construct: construct (comprising A2AAR residues 2-316) was cloned into a modified pFastBac1 vector; made in house; host or cells: Sf9 insect cells (baculovirus), membranes
It is filed as binding.

For a further experiment, the target named is T2, A2A wt (Homo sapiens, UniProt P29274).
T2 construct: made in house; host or cells: Sf9 insect cells (baculovirus), membranes
It is filed as binding.

For orientation: Ki means a dissociation constant, usually derived from enzyme kinetics or from competition with a known ligand. Consider `CC(C)(C)OC(=O)COCCOCCOCCOCCNC(=O)COc1ccc(N2CCN(CCn3ncc4c3nc(N)n3nc(-c5ccco5)nc43)CC2)cc1` [Compound 4, tert-Butyl 1-(4-(4-(2-(5-amino-2-(furan-2-yl)-7H-pyrazolo[4,3-e][1,2,4]triazolo[1,5-c]pyrimidin-7-yl)ethyl)piperazin-1-yl)phenoxy)-2-oxo-6,9,12,15-tetraoxa-3-azaheptadecan-17-oate], for which the Ki on A2A-ΔC (read-out: Ki ± SEM) was 12.7 ± 3.3 nM; at A2A wt (read-out: Ki ± SEM) it was 6.3 nM.

Broadly, the Kd is the equilibrium constant for the complex coming apart. Consider MSX-2 [reference compound], for which the Kd on A2A-ΔC (homologous competition vs. [3H]MSX-2, Sf9 membranes, A2A-ΔC, read-out: Kd ± SEM) came out at 17.7 ± 2.02 nM; on A2A wt (homologous competition vs. [3H]MSX-2, Sf9 membranes, A2A wt, read-out: Kd ± SEM) it was 13.3 ± 0.756 nM.
